Source: PubChem BioAssay AID1240 (Sanford-Burnham Center for Chemical Genomics, 2008)
The campaign covered roughly 50,000 compounds. About 800 (1.6%) showed an effect of 50% or more. Some of the results follow.

target: Bcl-2-like protein 10 (Homo sapiens) (UniProt Q9HD36); experiment: TR3 peptide-Bcl-B binding displacers, biochemical primary FP assay, phenotype converters (AID 1240); conditions: GST-Bcl-B / FITC-TR3 peptide fluorescence polarization; stronger effect = higher value; compound at 3.75 mg/L;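 also: 0% = Bcl-B with tracer peptide and DMSO and 100% = tracer peptide lacking Bcl-B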
Chain of UniProt Q9HD36 (Q9HD36 whole entry, looked up): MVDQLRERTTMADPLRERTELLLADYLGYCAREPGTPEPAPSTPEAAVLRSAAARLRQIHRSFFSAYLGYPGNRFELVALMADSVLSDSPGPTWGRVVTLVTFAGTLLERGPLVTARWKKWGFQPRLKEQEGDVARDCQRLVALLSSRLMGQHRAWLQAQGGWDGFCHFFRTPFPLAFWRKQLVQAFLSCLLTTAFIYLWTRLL

Row | Compound | displacement [%]
1 | Fc1ccc(Cc2cnc(Nc3ccccc3)s2)cc1 | -12.5
2 | O=C(Nc1ccc(Nc2ccccc2)c2c1C(=O)c1ccccc1C2=O)c1ccccc1 | 11.4
3 | Cc1cc2c(cc1C)NC(c1coc3ccccc3c1=O)C1=C(CC(C)(C)CC1=O)N2 (configuration not stated) | -3.7
4 | CS(=O)(=O)N1CCN(C2CCC(c3ccccc3)CC2)CC1 (configuration not stated) | 9.5
5 | Cc1cccc(C(=O)N2CCC(C(N)=O)CC2)c1 | 13.5
6 | O=C(c1ccncc1)N1CCN(Cc2ccccc2)CC1 | -7.8
7 | C=CCn1c(SCC(=O)N2CCCCC2)nc2sc(C)c(C)c2c1=O | -8.7
8 | Cc1ccc(C)c(N(CC(=O)NC2CCCCC2)S(=O)(=O)c2ccccc2)c1 | -7.8
9 | COc1cc(C(=O)c2cc(Br)ccc2NC(=O)C(OC)c2ccccc2)cc(OC)c1OC (configuration not stated) | 10.3
10 | CC(Nc1nc(-c2ccccc2O)nc2ccccc12)c1ccccc1 (configuration not stated) | -6.5
11 | CCC1CCc2c(sc(NC(=O)c3c(-c4ccccc4)noc3C)c2C(N)=O)C1 (configuration not stated) | -9
12 | Cc1cc(Cl)ccc1OCCCC(=O)NO | 4.6
13 | Cc1cc(N2C(=O)NC(=O)/C(=C\C=C\c3ccco3)C2=O)ccc1Br | -3.7
14 | COc1cc(C2Nc3cc(C)c(C)cc3NC3=C2C(=O)CC(C)(C)C3)c(OC)cc1Br (configuration not stated) | -1.8
15 | O=[N+]([O-])c1ccc(C2CC(c3ccc(Cl)cc3)=Nc3ccccc3N2)cc1 (configuration not stated) | 1
16 | O=c1[nH]c(=O)n(-c2ccccc2Cl)c(O)c1C=NCCCn1ccnc1 | 11.5
17 | O=C(NCCN1CCOCC1)c1ccc(Cl)cc1 | 2.1
18 | CC(=O)c1cccc(NC(=O)c2nn3c(C(F)(F)F)cc(-c4cccs4)nc3c2Cl)c1 | 13.4
19 | Cc1ccc(Cl)c(OCCCN2CCCCC2)c1 | -6.7
20 | O=C(Nc1ccccc1-c1ccccc1)c1ccc(Br)cc1 | -6.5
21 | CCOc1cc(/C=C2\SC(N3CCC(C)CC3)=NC2=O)ccc1O | -26.2
22 | Cc1ccc(OC(=O)c2ccc(Br)o2)cc1 | -13.2

Row | Compound | displacement [%]
23 | CC1=C(C(=O)OC(C)C)C(c2ccc(OCC(N)=O)cc2)NC(=O)N1 (configuration not stated) | 10.3
24 | CCOC(=O)c1c(-c2ccc(OC)c(OC)c2)csc1N | 15.1
25 | COc1ccc(-c2cc(C(=O)Nc3ccccc3F)c3ccccc3n2)c(OC)c1 | 82.3
26 | Cc1ccc2[nH]c(C)c(CC(=O)N/N=C/c3cccnc3)c2c1 | 4.9
27 | O=C(CCC(=O)Nc1ccc(I)cc1)N/N=C/C=C/c1ccccc1 | 11.1
28 | Cc1cc(C)c2[nH]c(O)c(N=NC(=O)/C(=C\c3ccc([N+](=O)[O-])cc3)NC(=O)c3ccccc3)c2c1 | 7.2
29 | O=C(O)c1cccc(NC(=O)c2cc3cc([N+](=O)[O-])ccc3oc2=O)c1 | -0.3
30 | Cc1c(NC(=S)NCc2ccco2)c(=O)n(-c2ccccc2)n1C | 0.5
31 | CC1=C(C#N)c2nc(N)c(C#N)c(C)c2/C1=C/c1cc(Cl)cc(Cl)c1Cl | 6.3
32 | O=C(/C=C/c1ccc(Cl)cc1)Nc1ccc(NC(=O)c2ccccc2)cc1 | 1.2
33 | COc1ccc(NCN2C(=O)S/C(=C/c3ccc(F)cc3)C2=O)cc1Cl | -11.3
34 | O=C(NC(CS)C(=O)O)c1cncc(O)c1 (configuration not stated) | 11
35 | COc1cc(/C=C/c2cc(C(F)(F)F)[nH]c(=O)n2)ccc1O | 44.6
36 | O=C(Nc1nccs1)c1cccc(NC(=O)c2cccs2)c1 | 13.1
37 | C=CCOc1ccc(/C=C2\C(=O)N(C)C(C)=C2C(=O)OC)cc1OC | 8.8
38 | Cc1ccc(OCC(=O)NCc2ccncc2)c(Br)c1 | -3.1
39 | COc1ccc(CN=Cc2c(O)n(-c3ccc(OC)cc3)c(=O)[nH]c2=O)cc1 | -3.4
40 | CC(=O)N1c2ccccc2NC2=C(C(=O)CC(C)(C)C2)C1c1c(F)cccc1Cl (configuration not stated) | 4.9
41 | CN1CCN(C(=S)SCCN2CCCC2=O)CC1 | -5.4
42 | COc1ccc(C(=O)NC(=S)Nc2ccc(S(=O)(=O)N=C(N)N)cc2)cc1 | 9
43 | Cc1ccc(C)c(S(=O)(=O)Nc2ccc3oc4c(c3c2)C(=O)CCC4)c1 | 9.8
44 | CCOc1ccc(C(=O)Nc2ccc(-c3nc4ccccc4s3)c(O)c2)cc1Cl | 3.9

Row | Compound | displacement [%]
45 | O=C(O)c1ccc(NC(=O)c2ccccc2NC(=O)c2ccccc2Cl)cc1 | 11.9
46 | O=C(COC(=O)c1ccccc1Nc1ccccc1)c1cccc([N+](=O)[O-])c1 | -20.8
47 | CC1CC(Nc2ccccc2)c2ccccc2N1C(=O)Nc1cccc(Cl)c1 (configuration not stated) | 13.7
48 | COc1cc(/C=N/NC(=O)COc2cccc(C)c2)ccc1OC(=O)c1ccco1 | 7.2
49 | Clc1ccc(CN2CCN(/N=C/C=C\c3ccco3)CC2)cc1 | -6.7
50 | NS(=O)(=O)c1ccc(N=Cc2ccc[nH]2)cc1 | 0.3
51 | O=C1C2C3C=CC(C3)C2C(=O)N1/N=C/c1ccc2c(c1)OCO2 (configuration not stated) | 5.8
52 | CCOC(=O)C(C#N)C(=O)c1ccc(N2C(=O)c3ccccc3C2=O)cc1 (configuration not stated) | 11.8
53 | COc1ccccc1NN=c1c(=O)c2ccccc2c1=O | 31.9
54 | Cc1ccccc1OCC(=O)Nc1cccc(NC(=O)c2ccco2)c1 | 6.7
55 | COCCOC(=O)C1=C(C)NC(=O)CC1c1ccccc1OCc1ccccc1 (configuration not stated) | 14.1
56 | O=[N+]([O-])c1cc(/C=N/N2CCN(c3ccccc3)CC2)ccc1Cl | -6.1
57 | CCN(CC)c1ccc(/C=N/NC(=O)c2nonc2N)c(OCc2ccc(Cl)cc2)c1 | -2.6
58 | COc1ccc2c(c1OC)C(=O)OC2Nc1cc(C)ccc1O (configuration not stated) | -5.3
59 | CN(C)C(=O)c1ccc(CN2CCc3ccccc3C2)cc1 | -15
60 | O=C(NCCO)C(=O)Nc1ccc(Oc2ccccc2)cc1 | 3.9
61 | COc1ccc(N2Cc3ccc(C(=O)NN)cc3C2)cc1 | -29.2
62 | COc1ccc(OC)c(C2NC(=S)NC(C)=C2C(=O)Nc2ccc(C)cc2)c1 (configuration not stated) | 5.7
63 | Cc1ccc(C=Nc2ccc3c(c2)Cc2cc([N+](=O)[O-])ccc2-3)cc1 | -27.4
64 | O=C1CCCC2=C1C(c1ccc([N+](=O)[O-])cc1)C1C(=O)c3ccccc3C1=N2 (configuration not stated) | -0.3
65 | Cc1ccc(NC(=O)CSc2nc3ccc(N)cc3s2)cc1Cl | -27.7
66 | COCCOC(=O)c1c(C)oc2ccc(NS(=O)(=O)c3ccc(C)cc3)cc12 | 4.1

Row | Compound | displacement [%]
67 | Cc1ccccc1NC(=O)c1c(NC(=O)c2cccc(Br)c2)sc2c1CCCC2 | -14.5
68 | CC(C)CC1C(C#N)=C(N)Oc2n[nH]c(-c3ccccc3)c21 (configuration not stated) | -7.9
69 | C(=N\n1cnnc1)/c1cn(CCOc2ccc(C3CCCCC3)cc2)c2ccccc12 | -10.2
70 | CC(NS(=O)(=O)N(C)C)c1ccc(-c2ccccc2)cc1 (configuration not stated) | 9.1
71 | CC1CCN(c2nc(-c3ccccc3)nc3ccccc23)CC1 | 1.4
72 | COc1cc(/C=C2/SC(=S)N(CC(=O)O)C2=O)ccc1OCc1ccccc1F | -20
73 | NC(=O)/C(=C\c1ccc2c(c1)OCO2)NC(=O)c1ccco1 | -10.5
74 | Cc1ccc(NC2CC(C)N(C(=O)CN3C(=O)c4ccccc4C3=O)c3ccc(C)cc32)cc1 (configuration not stated) | 1.4
75 | CCCCOc1cccc(C(=O)Nc2ccc(N3CCN(C(C)=O)CC3)cc2)c1 | 0.6
76 | CCCC1=NN2C(=N)/C(=C/c3ccc4c(c3)OCO4)C(=O)N=C2S1 | -6
77 | O=C(Nc1nc2ccc(Cl)cc2s1)c1ccccc1[N+](=O)[O-] | -4.1
78 | CC(C)Oc1ccc(C2CC(=O)N(c3cccc(/C=C/C(=O)O)c3)C2=O)cc1 (configuration not stated) | -2.2
79 | COC(=O)c1c(N)sc2c1CCCCCC2 | -12.3
80 | O=c1oc(-c2cccc(F)c2)nc2c1cnn2-c1ccccc1 | 0.8
81 | C=CCC1(N(C(C)=O)c2ccccc2C)CCCCC1 | -2.8
82 | CCOC(=O)c1ccc(-n2c(-c3ccco3)nc3ccccc3c2=O)cc1 | 4.6
83 | Cc1ccc(NC(=O)CN(c2ccc(Br)cc2)S(C)(=O)=O)cc1 | -1.2
84 | CCCOC(=O)Nc1ccc(S(=O)(=O)Nc2ncccn2)cc1 | 11.6
85 | Cn1c(=O)c2c(nc(Sc3ncn[nH]3)n2C)n(C)c1=O | 19.4
86 | CCN1C(=O)/C(=C/c2c(Cl)cccc2Cl)SC1=S | 0.8
87 | CC1=NN(C(=O)c2ccccc2Cl)C(O)(C(F)(F)F)C1 (configuration not stated) | -7.4
88 | CCOC(=O)c1cnn2c(C)cc(-c3ccccc3)nc12 | 5.6

Row | Compound | displacement [%]
89 | O=C(c1ccc(-c2ccccc2)cc1)N1CCN(C2CC3CCC2C3)CC1 (configuration not stated) | -11.5
90 | CC(=O)N(C)c1ccc(NC(=O)c2ccccc2[N+](=O)[O-])cc1 | -4
91 | Nc1ccc2nc(Sc3nc4ccc([N+](=O)[O-])cc4s3)sc2c1 | -15.1
92 | Cc1cc(C)c(NS(=O)(=O)c2cccc3c2C(=O)c2ccccc2C3=O)c(C)c1 | -2.4
93 | COc1cc(C2C(C(=O)OCc3ccccc3)=C(C)NC(C)=C2C(=O)OCc2ccccc2)ccc1O | -15
94 | O=C(NCc1cccnc1)c1ccc(C#Cc2ccccc2)cc1 | -5.9
95 | Cc1cc(C)c(N=Cc2c(C)[nH]n(-c3ccccc3)c2=S)c(C)c1 | 13.7
96 | COc1ccc(C2CC(=O)C3=C(C2)Nc2ccccc2NC3c2ccc([N+](=O)[O-])cc2)cc1OC (configuration not stated) | 1.1
97 | CCc1cc(=O)oc2cc(OCC(=O)OC(C)C)ccc12 | 0
98 | NS(=O)(=O)c1ccc(NC(=S)NC(=O)c2sc3cc(F)ccc3c2Cl)cc1 | 12.7
99 | COc1ccc(OC)c(C2/C(=C(\O)c3ccccc3)C(=O)C(=O)N2c2cccnc2)c1 (configuration not stated) | 16.5
100 | CCCCC1(O)CC(c2ccc(OC)cc2)NC(c2ccc(OC)cc2)C1C (configuration not stated) | 6.6
101 | CC(=O)N1CCN(c2ccc([N+](=O)[O-])cc2Cl)CC1C (configuration not stated) | 15
102 | COc1ccc(/C(O)=C2/C(=O)C(=O)N(CCCCCC(=O)O)C2c2ccc(F)cc2)cc1 (configuration not stated) | -17.7
103 | Cc1ccccc1OCCCN1CCC(C)CC1 | 15.1
104 | Cc1ccc(Nc2nc(-c3ccc(S(=O)(=O)N4CCOCC4)cc3)cs2)cc1Cl | -2.9
105 | CCOC(=O)C1(C)C(Br)=C(O)C(=O)N1c1ccccc1 (configuration not stated) | 1.3
106 | Cc1ccc(NC(=O)COc2cccc(Cl)c2)cc1[N+](=O)[O-] | -2
107 | O=C1Nc2ccc(Br)cc2C1=Cc1nc2ccccc2c(=O)n1-c1ccc(C(=O)O)cc1 | -3.8
